# Source: the supplement of paper PMC3334620
# Whole data set: some 33,000 sequences, median “E-score (-0.5 to 0.5)” near -0.012, cut for the highest 2% near 0.29. The list shows a part of the results.
# Target: T1, Ybr033w (UniProt P38073)
# T1 sequence: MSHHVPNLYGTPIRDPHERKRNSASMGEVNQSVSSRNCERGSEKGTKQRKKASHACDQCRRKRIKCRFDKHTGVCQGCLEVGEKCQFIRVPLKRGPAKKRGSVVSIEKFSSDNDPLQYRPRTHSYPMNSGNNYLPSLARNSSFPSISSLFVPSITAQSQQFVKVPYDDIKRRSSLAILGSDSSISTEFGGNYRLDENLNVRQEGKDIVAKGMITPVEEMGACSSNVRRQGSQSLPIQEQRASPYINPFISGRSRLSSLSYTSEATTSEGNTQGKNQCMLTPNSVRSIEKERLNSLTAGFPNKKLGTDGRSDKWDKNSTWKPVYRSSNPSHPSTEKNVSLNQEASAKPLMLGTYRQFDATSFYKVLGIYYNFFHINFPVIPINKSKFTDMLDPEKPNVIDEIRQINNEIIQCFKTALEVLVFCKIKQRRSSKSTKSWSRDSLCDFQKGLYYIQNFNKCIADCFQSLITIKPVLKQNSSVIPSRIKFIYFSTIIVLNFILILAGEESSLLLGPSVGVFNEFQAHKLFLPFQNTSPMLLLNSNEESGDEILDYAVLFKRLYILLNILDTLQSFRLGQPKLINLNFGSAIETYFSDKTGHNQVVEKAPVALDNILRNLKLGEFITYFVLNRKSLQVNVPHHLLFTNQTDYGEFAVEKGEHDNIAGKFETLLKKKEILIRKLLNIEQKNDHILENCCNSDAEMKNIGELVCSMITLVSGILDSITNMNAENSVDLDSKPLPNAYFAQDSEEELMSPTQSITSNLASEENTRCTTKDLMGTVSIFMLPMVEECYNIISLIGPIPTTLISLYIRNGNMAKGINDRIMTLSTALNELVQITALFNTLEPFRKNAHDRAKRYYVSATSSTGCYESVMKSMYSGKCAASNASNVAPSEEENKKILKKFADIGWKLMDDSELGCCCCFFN
# Experiment: PBM E-score (8-mer binding enrichment) (E-score (-0.5 to 0.5)); higher = stronger / more preferred TF binding; most listed sequences are background and not binding sites
# Conditions: protein concentration: 200 nM; construct: GST-full length
# Summary of the method: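 Masliner-normalised scans of fluorescent anti-GST signal were the basis for scoring. That signal came from GST-tagged yeast transcription factors applied at about 100-200 nM to double-stranded universal all-10-mer Agilent arrays on fresh or once-stripped slides. Each ungapped eight-base word, pooled with its reverse complement, received an E-score from the Universal PBM Analysis Suite.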
row,Sequence,PBM E-score
1,ACTTAGGG,0.0105
2,GGGCGGCA,-0.331
3,CTGAATCC,0.0548
4,AGCCTCAG,-0.0326
5,CCGAGCGG,-0.119
6,AGGAATCG,0.116
7,CATGGTGC,-0.156
8,GTCATTTA,-0.0316
9,ACCGCGAT,0.125
10,AAGATCCC,0.0772
11,AGGCGATC,-0.189
12,GGATGAGA,-0.229
13,ATTGGTGA,0.0383
14,CGTGGTGC,-0.178
15,ATTACACA,0.184
16,CCACATGC,-0.0219
17,GAGTTCAA,0.0343
18,GATCCTGC,-0.0731
19,AGAGTCCT,-0.113
20,GACCCAGA,-0.114
21,CACTTATG,-0.027
22,TACTGCCA,0.038
23,CCCGAAGC,-0.0315
24,TCTTCTCA,0.0537
25,CGCGGGAG,-0.286

row,Sequence,PBM E-score
1,GCGCCAAC,0.0829
2,ATTAAAAC,0.272
3,ACCAGAGT,-0.181
4,ATGCGCCG,-0.146
5,ACTACGAT,0.162
6,AGTGCGCA,0.0335
7,CAGGAGCC,-0.343
8,AGGTTGGC,-0.104
9,GTGGCACA,-0.228
10,AGTGTACC,-0.15
11,CTTTTTTC,0.217
12,GCCGGCGC,-0.0518
13,CTGGTTCC,-0.153
14,TAGCCCGA,-0.0462
15,CCGATGAA,0.0214
16,AGATTCTC,0.146
17,CTGATCAG,0.0373
18,AACAATAG,0.127
19,GCACTTGA,-0.0452
20,CGTATCAA,0.0866
21,ATCACGAC,-0.0763
22,TGATTCCA,0.135
23,ATGCGCTC,0.111
24,ACACCTTA,0.119
25,CACATGTC,-0.137

row,Sequence,PBM E-score
1,AATGCAGG,-0.0597
2,ATTGTCGA,0.0343
3,ACATAAGA,0.293
4,AACAGCAG,0.065
5,AGATGCAA,0.07
6,AACAGACA,0.196
7,CAATTCCG,0.0975
8,GACAGACC,-0.114
9,GGAGTCAC,-0.234
10,GCCTTTCA,-0.0076
11,ATGGCAGG,-0.115
12,GTCCGCAA,0.0112
13,AGACAAGG,-0.262
14,ACTATGAA,0.192
15,ATGGGCGA,-0.162
16,CGCAGCTC,-0.18
17,AGGTCGCG,-0.191
18,ACCTACCA,0.00172
19,CGAGAGGC,-0.372
20,AAATACTC,0.316
21,GCGTCTAA,-0.143
22,ATGGCGGG,-0.155
23,CGCTAGAA,-0.0487
24,CGGCAGCA,-0.191
25,GCGCTTAA,-0.0639

row,Sequence,PBM E-score
1,CGACTTCC,-0.263
2,TCGTGGCA,0.00883
3,ACCTGCTA,0.00309
4,AGTTGAGG,-0.0884
5,ACTTATCC,0.0884
6,AAGGTTTC,0.0283
7,GCCTGGAC,-0.199
8,AGAGAAGG,-0.0638
9,ATTGAATC,0.0535
10,AGACTAAG,-0.0468
11,ATTTCACG,0.105
12,GAGCTTGA,-0.123
13,CGGAACCC,-0.223
14,ATAACTTC,0.0786
15,CCCTTGAG,-0.0277
16,GCCACTGA,-0.115
17,GAAGGTTA,-0.0452
18,AAGGAGGA,-0.0927
19,CCATAACG,-0.104
20,GAGCCTGA,-0.173
21,GGAAAATA,0.414
22,AACGTCTA,0.0687
23,GACATACA,0.159
24,ACTAACTG,0.179
25,GCCAGAGA,0.00623

row,Sequence,PBM E-score
1,CATGAGGG,-0.195
2,GTAGAGGA,-0.167
3,CATTTGTC,0.0307
4,CATACTGA,0.212
5,ACCCTCGG,-0.139
6,GCTGTATA,0.0885
7,ACACTGGA,0.0728
8,AACGCCGT,0.0469
9,AATCAGCG,0.0406
10,CCTATTGC,0.0416
11,AAATACCT,0.171
12,GCATGGGA,-0.218
13,AAATTCTC,0.159
14,GATCCCAA,-0.0157
15,CGACCTGA,0.0111
16,AGTCTCGC,-0.135
17,CTAGGGCA,-0.302
18,TAGGTGAA,0.171
19,CTCCCCAG,-0.263
20,ATGTGTTA,0.163
21,TCTCTTCA,0.0417
22,AAAGCCTA,-0.0721
23,CGCGTAAA,0.169
24,GCGACCAA,0.0307
25,AACGGCAA,-0.0891

row,Sequence,PBM E-score
1,CATTCATA,0.187
2,ACCCTAAG,-0.0353
3,CCCGGTAC,-0.284
4,ATGCATAA,0.177
5,CCTGCACA,-0.187
6,CTTGGTGC,-0.116
7,GAATCCTA,0.0954
8,ATGCATCC,-0.214
9,CTTCCGCA,0.0786
10,CTATGGAA,0.0439
11,CGAGTGGC,-0.32
12,ACATATCA,0.221
13,CTGGAAAG,-0.189
14,CAAACATG,-0.017
15,ACCTTGGC,-0.0759
16,TGCGTCCA,-0.168
17,AGTTCGTA,0.113
18,AGCCAAAA,0.149
19,ACGTCGTC,0.0162
20,CACAATAC,0.0573
21,CTTGGTTC,0.136
22,CGGCATAA,0.106
23,GACTATGA,0.0742
24,CCCAAGTC,-0.203
25,CACAGAAA,0.133

row,Sequence,PBM E-score
1,CCTCTCAC,-0.13
2,GAAACGCA,-0.0929
3,TTAACCAA,0.176
4,CTGCCTCC,-0.112
5,CTCAGGGC,-0.154
6,AAGCCGGG,-0.142
7,TCCCTACA,-0.0308
8,AAAGGGGC,-0.255
9,GAATACCA,0.0653
10,GTAGGAAC,0.112
11,CGTTGTGA,-0.15
12,ACCCTCTA,-0.135
13,AACGACAC,0.0902
14,ATCCGGAA,0.403
15,ATAGTCCC,-0.159
16,CATCTTTA,0.175
17,AAAATTAT,0.358
18,AACTGCGT,-0.00184
19,ACATGGAT,0.108
20,ATCTTCAT,0.088
21,CTTGTTTC,0.129
22,GATGAACA,0.107
